Measured values taken from the supplement of paper PMC9446081.
Out of some 39,000 compounds screened, about 220 (0.56%) showed activity. This is one part of the list.

Tested on: Escherichia coli K-12 BW25113
Assay: relative growth (OD600 normalised to plate interquartile mean) (fraction); higher = less growth inhibition, active = 0.2 or less
Conditions: 50 µM; LB; incubation time: overnight (16-24 h)
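Further: static incubation at 37 °C against the wild-type strain, values averaged over two biological replicates.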

| Compound | relative growth |
| --- | --- |
| C[C@H]1CCCCO[C@H](CN(C)Cc2ccc(Cl)c(Cl)c2)[C@@H](C)CN([C@@H](C)CO)C(=O)c2cc(NS(=O)(=O)c3ccccc3)ccc2O1 | inactive: 1 |
| C(=N\c1ccc2ccccc2c1)/Nc1ccc2ccccc2c1 | inactive: 1 |
| COC(=O)C[C@@H]1CC[C@H]2[C@@H](COC[C@@H](O)CN2S(=O)(=O)c2ccccc2C)O1 | inactive: 0.97 |
| CCCCC(CC)COC(=O)c1ccccc1O (stereo not given) | inactive: 0.851 |
| C[C@H]1CN([C@@H](C)CO)C(=O)c2cccc(NC(=O)C3CC3)c2O[C@H]1CN(C)S(=O)(=O)c1ccc(F)cc1 | inactive: 0.985 |
| COc1ccc(C#Cc2cnc3c(c2)C(=O)N([C@H](C)CO)C[C@H](C)[C@H](CN(C)C(=O)Nc2cccc4ccccc24)O3)cc1OC | inactive: 1.01 |
| C[C@@H]1CN([C@H](C)CO)C(=O)c2cccc(NC(=O)c3ccncc3)c2O[C@H]1CN(C)S(=O)(=O)c1cn(C)cn1 | inactive: 1.02 |
| CC(=O)O[C@H]1CC(C)(C)C[C@H]2[C@]13CO[C@@]21CC[C@H]2[C@@]4(C)CC[C@H](O[C@@H]5OC[C@H](O[C@@H]6O[C@H](CO)[C@@H](O)[C@H](O)[C@H]6O[C@@H]6OC[C@@H](O[C@@H]7O[C@H](CO)[C@@H](O)[C@H](O)[C@H]7O)[C@H](O)[C@H]6O)[C@H](O)[C@H]5O[C@@H]5O[C@H](CO)[C@@H](O)[C@H](O)[C@H]5O)[C@@](C)(CO)[C@@H]4CC[C@@]2(C)[C@]1(C)C[C@H]3O | inactive: 0.999 |
| CCc1nc2ccc(C(=O)NCCOc3ccc(OC)cc3)cn2c1N(CC)Cc1cccc(Br)c1 | inactive: 1.03 |
| COc1ccc([C@@H]([C@H](Cc2ccccc2)OC(C)=O)N2C[C@@H](OC(C)=O)[C@H]3C(=NO[C@@H]3c3ccccc3)[C@@H]2Cc2ccccc2)cc1 | inactive: 1.03 |
| Cc1noc(C)c1S(=O)(=O)N(C)C[C@H]1Oc2c(NC(=O)C3CC3)cccc2C(=O)N([C@H](C)CO)C[C@H]1C | inactive: 1.01 |
| CC(C)=CCC[C@]1(C)[C@@H](CC=C(C)C)C[C@]2(CC=C(C)C)C(=O)C(CC=C(C)C)=C(O)[C@@]1(C(=O)C(C)C)C2=O | inactive: 1.01 |
| C[C@@H]1CN([C@@H](C)CO)C(=O)Cc2cc(NS(=O)(=O)c3cn(C)cn3)ccc2O[C@H]1CN(C)CC1CCCCC1 | inactive: 1.01 |
| CC(=O)N(C)C[C@H]1Oc2cc(C#CCN(C)C)ccc2S(=O)(=O)N([C@H](C)CO)C[C@H]1C | inactive: 0.992 |
| COc1ccc(S(=O)(=O)N(C)C[C@@H]2Oc3c(NS(=O)(=O)c4cccs4)cccc3C(=O)N([C@H](C)CO)C[C@@H]2C)cc1 | inactive: 1.02 |
